Each structure is given as a SMILES string. In all, about 110,000 compounds were measured (“z-score”: median about -0.1, highest 2% from about 2 on). Some of the results follow.

In the assay the target is Metabotropic glutamate receptor 8 (Rattus norvegicus) (UniProt P70579). Kind of assay: rat mGluR8 modulators via GIRK flux, primary screen, cell-based, thallium flux, HTS (AID 488969). The settings on record: HEK293 rat mGluR8, GIRK (G protein-gated inwardly rectifying potassium channel) thallium flux, FluoZin2; at 10 µM; stronger effect = higher value; submaximal glutamate (EC20) added with thallium.
Sequence of UniProt P70579 (P70579 whole entry, looked up): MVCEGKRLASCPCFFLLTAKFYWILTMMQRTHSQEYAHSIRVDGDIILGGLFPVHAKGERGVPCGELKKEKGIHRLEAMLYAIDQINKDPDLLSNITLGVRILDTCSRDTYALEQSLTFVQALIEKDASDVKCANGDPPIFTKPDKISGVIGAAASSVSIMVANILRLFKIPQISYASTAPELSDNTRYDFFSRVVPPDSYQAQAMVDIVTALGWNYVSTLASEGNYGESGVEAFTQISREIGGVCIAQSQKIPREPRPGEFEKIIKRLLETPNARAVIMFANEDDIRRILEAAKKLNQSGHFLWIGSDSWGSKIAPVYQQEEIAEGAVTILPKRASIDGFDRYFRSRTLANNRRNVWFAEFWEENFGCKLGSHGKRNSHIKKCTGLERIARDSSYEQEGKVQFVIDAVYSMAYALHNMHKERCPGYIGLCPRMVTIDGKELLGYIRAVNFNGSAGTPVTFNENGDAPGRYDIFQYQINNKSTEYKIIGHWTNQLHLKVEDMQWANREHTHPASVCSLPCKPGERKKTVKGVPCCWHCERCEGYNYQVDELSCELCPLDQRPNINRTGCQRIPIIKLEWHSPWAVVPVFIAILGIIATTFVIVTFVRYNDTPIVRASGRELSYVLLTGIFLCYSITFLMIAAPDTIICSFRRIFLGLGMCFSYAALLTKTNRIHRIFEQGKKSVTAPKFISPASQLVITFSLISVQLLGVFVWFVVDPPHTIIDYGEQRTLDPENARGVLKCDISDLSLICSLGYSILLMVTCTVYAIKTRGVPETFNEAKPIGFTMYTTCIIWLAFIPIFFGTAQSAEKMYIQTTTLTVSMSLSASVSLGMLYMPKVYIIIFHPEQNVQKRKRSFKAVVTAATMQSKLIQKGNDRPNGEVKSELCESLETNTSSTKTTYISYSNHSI
In turn, `COc1ccc(C2C(C(=O)Nc3cccnc3)=C(C)Nc3nc(-c4cccs4)nn32)cc1OC` (stereo not drawn) yielded a z-score of -0.25.

The molecule `CC1CN(CC(=O)Nc2ccccc2Sc2ccccc2)CC(C)O1` (stereo not drawn) returned a z-score of -0.148.

`CCOc1c2ccc(C(=O)NCc3ccc(OC(F)(F)F)cc3)cc2nn1CC` displayed a z-score of -0.277.

The molecule `CCCOc1ccc(N2C(=O)C3C(C(C)C)NC4(C(=O)c5ccccc5C4=O)C3C2=O)cc1` (stereo not drawn) came in with a z-score of 0.251.

The molecule `CCOC(=O)N/N=C\c1ccc([N+](=O)[O-])o1` showed a z-score of 0.19.

Consider `COc1ccc(OC)c(NC(=O)c2ccc3c(=O)n(CCc4ccccc4)c(=S)[nH]c3c2)c1`, for which the z-score came out at 1.14.

As to `O=C(CCC1CCCC1)c1c(O)c2ccccc2oc1=O`, the z-score was 0.412.

For the molecule `Cc1ccc(C(=O)N/C(=C/c2ccc(-c3ccc(Br)cc3)o2)C(=O)NC2CCS(=O)(=O)C2)cc1` (stereo not drawn), the z-score was -0.135.

On to `COc1cc(Br)cc(C=Nc2cccc(C(F)(F)F)c2)c1O`, for which the z-score is -0.62.

Turning to `O=[N+]([O-])c1ccc(N2CCN(S(=O)(=O)c3ccc4ccccc4c3)CC2)cc1NCC1CCCO1` (stereo not drawn), the z-score is -0.161.

Molecule `NNS(=O)(=O)c1ccc(Cc2ncc(C(F)(F)F)cc2Cl)s1` returned a z-score of -0.119.

In turn, `CC1Cc2nc(SCC(=O)N3CCCc4ccccc43)n(C)c(=O)c2S1` (stereo not drawn) yielded a z-score of -1.

In turn, `Oc1c(Br)cc(Br)cc1/C=N/c1nc2c(s1)CCCC2` showed a z-score of -0.401.

`CC12CCC(C(=O)NCc3ccc4c(c3)OCO4)(C(=O)C1=O)C2(C)C` (stereo not drawn) gave a z-score of 1.52.

Consider `O=C(Nc1ccc2nc3n(c(=O)c2c1)CCCC3)c1cc([N+](=O)[O-])ccc1F`, for which the z-score is -0.759.

Consider `CC1(C)Cc2c(ccc3ccccc23)C(c2cc3ccccc3oc2=O)=N1`, for which the z-score is -0.0815.

`CC1(c2ccccc2)CC(c2ccccc2)=Nc2nonc2N1` (stereo not drawn): the z-score was -0.776.

Turning to `CC1CCN(C(=O)C(Cc2ccccc2)NS(=O)(=O)c2ccc3c(c2)oc(=O)n3C)CC1` (stereo not drawn), the z-score is -0.0196.

Regarding `COc1ccc(NC(NC(=O)c2ccc(OC)cc2)C(Cl)(Cl)Cl)cc1` (stereo not drawn), the z-score is -0.373.

Molecule `COc1cc2c(cc1OC)C(=O)CC(C)S2` (stereo not drawn) showed a z-score of -0.119.

For the molecule `Cc1ccc2cc(C(c3nnnn3C3CCCC3)N(Cc3ccccc3)Cc3ccco3)c(=O)[nH]c2c1` (stereo not drawn), the z-score was -0.293.

As for `CC(C)c1ccc2[nH]c(O)c(N=NC(=S)NCCc3ccccc3)c2c1`, the z-score came out at 0.396.

`CCn1c(SCC(=O)NC(C)c2ccccc2)nc2ccccc21` (stereo not drawn) registered a z-score of -0.23.

`c1csc(C2Nc3ccccc3-c3nc4ccccc4n32)c1` (stereo not drawn) yielded a z-score of -0.511.

Turning to `CC(=O)c1cccc(NC(=O)c2cc3nc(C)cc(C)n3n2)c1`, the z-score turned out to be 0.0482.

Turning to `O=C(CCCN1C(=O)c2ccccc2C1=O)NC1CCCCCC1`, the z-score was -0.15.

`Nc1c(-c2ccccc2)c(CN2CCOCC2)nn1-c1ccccc1`: the z-score turned out to be 0.911.

Take `COc1ccc(NC(=O)c2nc[nH]c2C(=O)Nc2ccccc2C)cc1`: the z-score amounted to 0.48.

As to `CCCn1nc(CC(=O)O)c2ccccc2c1=O`, the z-score was -0.0719.

In turn, `CCOc1cc(OCC)cc(C(=O)O)c1` displayed a z-score of 0.121.

`CC(C)(C)OC(=O)NCCc1nnc(SCC(=O)Nc2cccc(Cl)c2)o1` showed a z-score of 0.346.

For the molecule `NC(=O)C1CCN(CC(=O)N2c3ccccc3CCc3ccccc32)CC1`, the z-score is -0.147.

In turn, `Cc1ccc2nc(SCC(=O)N(CC(C)C)c3c(N)n(CC(C)C)c(=O)[nH]c3=O)[nH]c2c1` displayed a z-score of -0.249.

As to `Cc1cc(N2CC(C(=O)NCc3cccs3)CC2=O)ccc1C(C)C` (stereo not drawn), the z-score was -0.0647.

Regarding `O=C(N/N=C/c1cn(-c2ccccc2)nc1-c1ccc(F)cc1)c1ccc(Br)o1`, the z-score is 0.601.

Regarding `Cn1nc(C(=O)N2CCN(S(=O)(=O)/C=C/c3ccccc3)CC2)c2ccccc2c1=O`, the z-score is 0.121.

`Cc1ccc(S(=O)(=O)/N=C(\CN2CCCCC2)N2CCOCC2)cc1` gave a z-score of -0.155.

`COC(=O)c1ccc(COc2ncnc3c(Cl)cc(Cl)cc23)o1` showed a z-score of -0.688.

As for `C/C(=N\NC(=O)c1cccc(Cl)c1)c1cccc(NC(=O)C(C)C)c1`, the z-score was -0.374.

In the case of `COc1ccc(N2C(=O)[C@@H]3[C@H](C2=O)[C@H](C(=O)c2ccc(OC(C)=O)cc2)N2N=CC=C[C@@H]32)cc1`, the z-score was -0.805.

In turn, `Cc1cc(NC(=O)c2c(Cl)cnn2C)no1` yielded a z-score of 0.146.

`COc1ccc(OC)c(C2C(C(N)=O)=C(C)Nc3nc(CCCO)nn32)c1` (stereo not drawn) displayed a z-score of 0.624.

Molecule `O=C(c1ccccn1)N(Cc1ccco1)C1(C(=O)NC2CCCC2)CCCCC1` yielded a z-score of 0.246.

With `Nc1nnc(CCS(=O)(=O)c2ccc(Cl)cc2)s1`, the z-score was -0.123.

For `CCCCn1c(SCC(=O)Nc2sc3c(c2C(N)=O)CCC3)nnc1-c1ccccc1`, the z-score is -0.917.

Turning to `O=c1cc(O)c2c(=O)n(C3CCCCC3)c3ccccc3c2o1`, the z-score was found to be 1.04.

`CCOC(=O)C1CCN(c2cc(=O)n(-c3ccccc3Cl)c(=O)[nH]2)CC1` gave a z-score of -0.238.

Take `COc1ccc(CN(C(=O)c2cccs2)C(C(=O)NC2CCCCC2)c2ccc3ncccc3c2)cc1` (stereo not drawn): the z-score was -2.48.

`COc1ccc(CNc2nc3ccccc3n2Cc2ccccc2)cc1OC` gave a z-score of -0.482.

As to `CCCC(C)NC(=O)/C=C/c1cccc([N+](=O)[O-])c1` (stereo not drawn), the z-score was -0.0971.

In the case of `CC1CCN(S(=O)(=O)c2ccc3c(c2)oc(=O)n3CC(=O)NCc2ccc3c(c2)OCO3)CC1`, the z-score was -0.0434.

The molecule `CCN1CCCC1CNC(=O)Cn1cccc1C(=O)c1ccccc1C` (stereo not drawn) gave a z-score of -0.748.

Regarding `COc1ccc(OC)c(Nc2nc(N)nc(-c3cc4ccccc4o3)n2)c1`, the z-score is 0.223.

`CC(=O)c1cn(CC(=O)Nc2ccc(C)cc2)c2ccccc12`: the z-score was -0.235.

In turn, `O=C(/C=N/O)Nc1ccccc1` had a z-score of -0.00573.

`O=C(NCc1ccc(F)cc1)C1CCCN1C(=O)NCc1ccccc1` (stereo not drawn): the z-score is -0.471.

Regarding `CC1=C(C)CC(C(=O)c2ccc(C)cc2)C(C(=O)O)C1` (stereo not drawn), the z-score was 0.0846.

With `CCc1nc2c(c(=O)[nH]1)C1(CCCC1)Cc1ccccc1-2`, the z-score is -0.276.

In turn, `CCCC(=O)NC(Nc1cccc(C(F)(F)F)c1)C(Cl)(Cl)Cl` (stereo not drawn) showed a z-score of -0.917.

For the molecule `COc1cc2[nH]c(=O)n(CCCCCC(=O)NCCc3c[nH]c4ccccc34)c(=O)c2cc1OC`, the z-score was -0.0973.

Molecule `COc1ccccc1NC(=O)C(C)NS(=O)(=O)c1ccc(F)cc1` (stereo not drawn) had a z-score of 0.182.

As for `O=C(COc1c(Cl)cc(Cl)cc1Cl)c1ccc(Cl)cc1`, the z-score was -0.103.

For the molecule `Cc1cc(OCCCC(=O)N2CCCCC2)cc(C)c1Cl`, the z-score was -0.109.

In turn, `O=C(CSc1nc(-c2ccccc2Cl)ns1)NCc1ccco1` registered a z-score of -0.983.

Molecule `CN(C)CCCOC(=O)c1ccccc1` showed a z-score of -0.0127.

`CCCOc1ccc(-c2nnn(CC(=O)OCC)n2)cc1`: the z-score turned out to be 0.875.

Molecule `CCOC(=O)c1c(C)[nH]c(C)c1C(=O)CSc1nnc(-c2ccncc2)n1C` had a z-score of 0.0361.

Take `O=C(NCc1ccccc1)c1ccco1`: the z-score turned out to be 0.339.
